The campaign covered roughly 150,000 compounds. About 540 (0.36%) showed an effect of 50% or more. Some of the results follow.
tested on: Plasmodium falciparum; assay: Primary screen in NF54 nanoGlo assay, in single point, at 2uM, 72h; a lower Z score goes with more inhibition; format: functional, Erythrocyte; settings: timepoint 72 hour

SMILES | % Inhibition [%] | Z score
NC1(c2noc(-c3ccc(-c4nc(C5CC5)n[nH]4)cc3)n2)CCCC1 | 10 | -1.86
Cc1cc(N2CCC[C@H](NC(=O)c3ncsc3C(F)(F)F)C2)n(C)n1 | -5 | 0.56
O=c1ccc2c(N3CCOCC3)ncnc2n1CCCO | -14 | 2.38
COCC[C@H](C)NS(=O)(=O)c1cc(Cl)c(N)c(Cl)c1 | 7 | -0.74
COc1cn(C)c(C(=O)N2CCN(S(=O)(=O)c3ccc(F)cc3)CC2)cc1=O | -9 | 0.93
COCCN1C(=O)C2C(C(O)c3ccc(Cl)cc3)NC3(C(=O)Nc4ccccc43)C2C1=O (configuration not stated) | 2 | -0.23
CC(=O)N[C@@H]1C[C@H](CC(C)C)O[C@H](c2ccc(Cl)cc2)C1 | 19 | -2.13
CCCN1CCN(CCCNC(=O)c2c(N3CCCC3=O)c3cc(F)ccc3n2CC)CC1 | -4 | 0.59
Cn1cc(-c2csc(-c3ccncc3)n2)cn1 | -11 | 1.89
Cc1csc(CCNC(=O)Nc2ccnn2C[C@@H]2CC=CCC2)n1 | -13 | 1.69
O=C(O)C(Cc1cccc2ccccc12)NC(=O)[C@@H]1CCCO1 (some centres not stated) | -17 | 3.12
Cc1nc2ccc(Cl)cn2c1NC(=O)C1CCOCC1 | -18 | 1.63
Cc1cc(N2CCC3(NC(=O)Cn4ncn(C)c4=O)CCCC23)nc(CO)n1 (configuration not stated) | -5 | 1.02
Cc1ccc(CCC(=O)N2CC(OCC(F)(F)F)C2)cc1F | -3 | 0.44
CC1(O)CCN(c2cncc(OCC3CCCC3)n2)CC1 | -4 | 0.82
COc1ccc2c(c1)CCC[C@@]2(O)CNC(=O)Nc1cccs1 | -11 | 1.36
O=C(NC1(CC2CC2)CCN(Cc2ccccn2)CC1)c1ccccc1 | -3 | 0.6
O=C(Cc1cccnc1)N1CC[C@H](Oc2cccnn2)C1 | -5 | 0.61
Cc1cc(Nc2ccc(C)c(Cl)c2)c2cccc(C)c2n1 | 23 | -2.05
CCS(=O)(=O)N1C[C@@H]2CN(Cc3ccc(C)o3)C[C@]2(c2nc(C)no2)C1 | -11 | 1.42
CCN(CCOc1cccc(Cl)c1)C(=O)Cn1nc(C)cc1N | 3 | -0.25
CS(=O)(=O)N1CCN(C(=O)NC[C@@H](c2ccsc2)n2cccn2)C1=O | -11 | 2.16

SMILES | % Inhibition [%] | Z score
COC1CCCC(OC(=O)c2ccccc2-c2cncnc2)C1 (configuration not stated) | -4 | 0.62
O=c1[nH]nc(-c2ccc(Br)cc2)nc1Cc1ccc(Br)cc1 | -3 | 0.53
N#Cc1cc(Br)ccc1N1CCC[C@H](Cn2cncn2)C1 | -2 | 0.22
Cc1c(C2CC2)n[nH]c1NC(=O)Cc1ccccc1OC(F)F | -7 | 0.91
Cn1c(=O)[nH]c2nnc(-c3ccc4c(c3)OCO4)nc2c1=O | 17 | -2.25
NC(=O)c1nccnc1C(=O)N1CCc2c(Cl)cccc2C1 | 4 | -0.8
Cc1cc(O[C@H]2CCCN(C(=O)NCc3ccc4c(c3)OCO4)C2)nc(C)n1 | 2 | -0.26
FC(F)(F)c1cc(-c2ccco2)nc2cc(-c3ccc(Cl)c(Cl)c3)nn12 | -12 | 1.58
Cc1cc(N2CCCCCC2)n2nc(CN3CCN(C)CC3)nc2n1 | -10 | 1.26
OCc1nc([C@H]2CCOC2)nn1-c1cccc2cccnc12 | 7 | -0.67
CC1CCN(C(=O)c2nc(-c3cnccn3)no2)CC1 | -15 | 2.2
CC(C)(CN[C@H]1CCCS(=O)(=O)C1)c1cccc(F)c1 | -5 | 0.49
Cc1cccc(C(C)NCC(O)CN(C)C)c1 (configuration not stated) | -1 | 0.09
CCc1nc2c(c(C(=O)N3CCN(c4ncccn4)CC3)n1)OCCO2 | -9 | 1.21
O=C(CC1CCCC1)Nc1ccccc1C(=O)NC1CC1 | -7 | 0.61
O=C(Cn1nc2ccc(C(=O)NCc3ccccc3)cn2c1=O)Nc1cccc(Cl)c1 | -14 | 1.25
O=C(Nc1ncc(Cc2cccc3ccccc23)s1)c1ccccc1Cl | -3 | 0.46
COCCN(CCN(C)C)C(=O)c1ccc(Br)c(F)c1 | 6 | -1.02
c1cc2c(cc1-c1nnc(C3CCCC3)o1)OCO2 | -22 | 3.22
CC(C)Oc1cccc(CC(=O)NC2(CF)CCOCC2)c1 | 15 | -1.73
C#CCN(CC#CC)CC(=O)NCc1cccnc1 | -11 | 2.07
CC1(C)CCCN(C(=O)NCCCn2cccn2)CC1 | -8 | 1.55

SMILES | % Inhibition [%] | Z score
CCn1c(=O)c(C)nc2cc(-c3noc(Cc4ccc(NC(C)=O)cc4)n3)ccc21 | 12 | -1.16
CCN(C(=O)c1ccc2c(c1)OCCCO2)C1CC1 | -7 | 0.84
CCCCCc1ccc(C(=O)N2CCCC[C@H]2c2nc(-c3ccc(OC)cc3)no2)cc1 | 6 | -0.91
COCCCN(C)C(=O)[C@H](C)Oc1ccc(Cl)cc1 | -6 | 1.04
Cc1cccc(C[C@H](C)NC(=O)CC2=CCCC2)n1 | -8 | 0.86
CCCN(C)C(=O)CCc1ccnc(N(CC)CC)c1 | -29 | 3.08
COc1ccc(N[C@@H](C)c2cn[nH]c2C)cn1 | -6 | 0.7
O=C(Nc1cc(F)ccc1F)C(=O)N1C2CCC1CC(O)C2 (configuration not stated) | 2 | -0.27
COc1ccc2c(c1)-c1nc(-n3ncc(C(=O)NCCN4CCOCC4)c3C)ncc1CC2 | -12 | 2.15
Cc1ccc(C(=O)N(Cc2ccc(F)cc2)C2CCCCC2)cc1NC(=O)c1ccco1 | -5 | 0.46
Cc1ccc(C)c(-n2c3c(cc(C#N)c2=O)C(=O)C[C@H](c2ccccc2)C3)c1 | 6 | -1.04
O=C(CC1=CCCCC1)N1CCC(C(=O)N2CCCCCC2)CC1 | -7 | 0.84
O=S(=O)(NC1CCCC1)c1ccc(-c2cnc(C3CCCC3)o2)s1 | -5 | 0.62
CC(C)S(=O)(=O)CCCN1C(=O)N[C@@](C)(C(C)(C)C)C1=O | -7 | 0.77
CCCCN1CCCC[C@@H]1CNC(=O)Nc1c(C)noc1C | -9 | 1.15
O=C(CCc1nc(-c2ccsc2)no1)Nc1cccc(C(F)(F)F)c1 | -2 | 0.25
CCN1CCC[C@@H]1CN(Cc1cccnc1)Cc1ccsc1 | 7 | -1.31
CCOc1ccc2nc(NC(=O)[C@H]3CCCN(c4cc(C5CC5)ncn4)C3)sc2c1 | 8 | -1.61
CCOCC1(CNC(=O)c2csc(C)c2)CCC1 | -4 | 0.73
CCc1cc(NC(=O)c2cc(C(C)(C)C)on2)nc(C)n1 | -2 | 0.24
O=C(NCC1CCN(C(=O)c2nc3ncccn3n2)CC1)c1ccc(Cl)cn1 | -17 | 3.17
CCn1cc(-c2nc(-c3ccccc3C)no2)c(=O)c2cc(F)c(N3CCCCC3)cc21 | 51 | -3.9

SMILES | % Inhibition [%] | Z score
COc1ccc(-c2csc(C)n2)cc1S(=O)(=O)Nc1ccc(C#N)cc1 | -14 | 1.84
C[C@H](O)CNC(=O)c1ccnc(OCC2CC2)c1 | -13 | 2.51
CCn1cnnc1CCNc1ncnc2oc(C)nc12 | -16 | 2.66
O=C(N[C@@H](Cc1ccccc1)c1nc(-c2cccc(Cl)c2)no1)c1cccs1 | 5 | -0.6
O=C(Cc1nc2c(s1)C(=O)CCC2)NCc1ccco1 | -13 | 1.95
C[C@@H](CC(=O)NCc1ccsc1)NC(=O)OC(C)(C)C | -3 | 0.31
CN1C(=O)C[C@H](CNC(=O)c2ccc(O)c(Cl)c2)c2ccccc21 | -6 | 1.01
CC(C)C(=O)N(CCN1CCOCC1)Cc1c(-c2ccccc2)noc1N1CCCC1 | 17 | -1.64
Cc1c(Cl)cccc1-n1ncc(C(=O)N2CCN(c3ccc(F)cc3)CC2)c1C1CCN(C(=O)OC(C)(C)C)CC1 | 4 | -0.39
CC(=O)c1c(-c2ccccc2OCc2cccc(F)c2)cnn1C | -8 | 1.42
COCc1ncc(C)n1CC1CN(C(=O)c2ccoc2)C1 | 5 | -0.88
O=C(NCCn1nc(-c2ccncc2)c2c1CCCC2)c1ccccc1Cl | -14 | 1.85
CCc1ccc(C(=O)N(C)C[C@@H]2CC(F)(F)CN2C2CN(C)C2)cc1 | -13 | 1.57
COc1ccccc1N1CCN(C(=O)C2CCC(Cn3cnnn3)CC2)CC1 (configuration not stated) | 0 | 0.04
O=C1NCCN1C1CN(Cc2ccn(-c3c(F)cccc3F)n2)C1 | -6 | 0.55
FC(F)(F)C(CC1CCCO1)Nc1nc(C2CCC2)no1 (configuration not stated) | -17 | 2.24
CN1CCc2c(CNC(=O)C3CCC3)c3c(c(O)c2C1=O)OCO3 | -11 | 1.44
O=C(c1cncc(Br)c1)N1C2C=CCC1CC2 (configuration not stated) | -10 | 1.74
CCc1nc(CNc2nc(C)cnc2C)cs1 | -13 | 1.61
CCCc1cnc(C)nc1-c1ccc(C(=O)NCc2nncn2C(C)C)cc1 | 1 | -0.18

— ChEMBL document CHEMBL4888484, “Replenishing the malaria drug discovery pipeline: Screening and hit evaluation of the MMV Hit Generation Library 1 (HGL1) against asexual blood stage Plasmodium falciparum ,using a nano luciferase reporter read-out” (2022)
